Results published in the supplement of paper PMC4166925.
± gives the standard deviation of the averaged measurements. In all, about 33,000 sequences were measured (“E-score (dimensionless, -0.5 to 0.5)”: median about -0.049, highest 2% from about 0.37 on). This is one part of the list.

system: T1, PmTbr T-box DNA-binding domain (GST fusion); assay: PBM E-score of 8-mer (E-score (dimensionless, -0.5 to 0.5)); Tbr is Tbrain of the sea star Patiria miniata (Pm) or the sea urchin Strongylocentrotus purpuratus (Sp); higher = stronger binding preference; most listed sequences are background and not binding sites; details: the construct has about 5 more residues each side
T1 sequence: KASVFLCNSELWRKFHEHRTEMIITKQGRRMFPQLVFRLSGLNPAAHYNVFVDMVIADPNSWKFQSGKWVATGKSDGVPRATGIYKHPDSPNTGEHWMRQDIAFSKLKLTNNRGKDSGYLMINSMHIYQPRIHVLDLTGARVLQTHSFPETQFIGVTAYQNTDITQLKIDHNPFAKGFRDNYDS
Procedure, shortened: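 Using the Universal PBM Analysis Suite, every ungapped 8-mer received an enrichment E-score averaged over duplicate arrays. Probe intensities came from double-stranded Universal Agilent oligonucleotide arrays incubated with 200 nM GST-fused Tbr T-box DNA-binding domain in PBS (pH 7.5). That protein was expressed in BL21 E. coli at 20 °C and purified by glutathione affinity chromatography.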

Sequence | PBM E-score of 8-mer
AGGACGCA | -0.204 ± 0.036
CCCCGCGG | -0.0837 ± 0.039
GGTCGCTA | 0.0964 ± 0.017
ACCACTGC | -0.1944 ± 0.0013
ATATCAGA | -0.16 ± 0.043
TCCTCCGA | -0.227 ± 0.031
GTAGATAA | -0.124 ± 0.0056
TCGCCGAA | 0.00162 ± 0.053
CGTGTTTC | 0.126 ± 0.034
ACACAAGT | 0.0866 ± 0.059
TAAGTCCA | -0.197 ± 0.0039
GACGCCCC | 0.121 ± 0.078
ATTCTCTA | -0.17 ± 0.029
CCAGATGC | -0.139 ± 0.069
CCAAAGAC | -0.123 ± 0.008
ATAACCAG | -0.0343 ± 0.1
ATCGCCAG | 0.284 ± 0.0071
AATGAGAT | -0.0533 ± 0.027
AAGCGTAG | -0.0469 ± 0.048
GCTAGACC | -0.147 ± 0.015
ATGCAGGA | -0.208 ± 0.027
CATAGAAA | -0.135 ± 0.037

Sequence | PBM E-score of 8-mer
GTTACGTA | 0.105 ± 0.067
CAGGCATG | -0.313 ± 0.066
AACGATGT | 0.0297 ± 0.039
AGCGATCC | -0.0708 ± 0.029
AGCTCCCT | -0.0963 ± 0.051
GCTCTGGA | -0.229 ± 0.0069
CAGCGACG | 0.0301 ± 0.087
GCGGGATA | -0.125 ± 0.025
AGGAGACG | -0.072 ± 0.034
CGCAAGAC | 0.0568 ± 0.028
CCACACAG | 0.09004 ± 5.7e-05
ATACATAA | -0.089 ± 0.1
GCCATATA | -0.092 ± 0.017
GGTAAATA | -0.101 ± 0.062
CTTAAGTA | -0.194 ± 0.0088
CCAATTCA | 0.0108 ± 0.061
AGTTACCA | 0.0049 ± 0.06
AGCATGGC | -0.174 ± 0.051
CATGTGCA | 0.0375 ± 0.051
ACGGAGGG | -0.131 ± 0.059
CCTGTACA | -0.159 ± 0.0084
GACACACC | 0.287 ± 0.073

Sequence | PBM E-score of 8-mer
TGAGCCAA | -0.152 ± 0.014
CTATGCAC | -0.129 ± 0.042
CAACTGGA | 0.0555 ± 0.022
AAGAATTG | -0.0537 ± 0.066
GATGCGCC | -0.252 ± 0.014
TAGCCATA | -0.0238 ± 0.019
ATGGGAGC | -0.16 ± 0.016
ACGCTAGC | 0.0295 ± 0.047
AGAATTAC | -0.192 ± 0.025
CTCACACA | 0.41 ± 0.0079
GAATGTCA | 0.115 ± 0.029
CCAGACCA | -0.0405 ± 0.051
GCTAGAAA | 0.0693 ± 0.092
TGACACAA | 0.311 ± 0.0088
AATGTGTC | 0.425 ± 0.0071
CCATCCCA | -0.133 ± 0.1
CCCTTAGA | -0.238 ± 0.06
CGTTCTCA | 0.146 ± 0.044
GGTTCGAC | 0.0606 ± 0.091
CAACCATC | 0.0104 ± 0.011
ACTACGCA | 0.0912 ± 0.095
CAGAGAGC | -0.34 ± 0.019

Sequence | PBM E-score of 8-mer
AACGGGCC | -0.223 ± 0.072
AGTGCATA | 0.00416 ± 0.059
ATCTCCCC | -0.0143 ± 0.038
ACAAATTA | 0.106 ± 0.067
ATGGGTCA | -0.203 ± 0.038
GATCAAGA | -0.0339 ± 0.033
AACGCGGG | -0.147 ± 0.033
AATGAAAC | -0.18 ± 0.034
CACCGAGG | 0.0806 ± 0.037
CATCAGCC | -0.112 ± 0.0073
AAACTCGG | -0.244 ± 0.014
ACCTCCTG | 0.0176 ± 0.024
ACCCTGGG | 0.0733 ± 0.0079
CCAGCCAG | -0.114 ± 0.074
AGATATTA | -0.0683 ± 0.087
GCGATCCA | -0.0877 ± 0.058
AGACGCCA | -0.0179 ± 0.091
TACCTTCA | 0.0141 ± 0.08
CCGCTTAA | -0.0734 ± 0.03
ACCTGGGG | 0.0226 ± 0.0096
CGACGCCC | 0.174 ± 0.018
CATGATCA | -0.0563 ± 0.0083

Sequence | PBM E-score of 8-mer
TAAGAGTA | -0.272 ± 0.044
CTGCATTA | -0.0284 ± 0.033
CCAGAGGC | 0.0947 ± 0.07
GGACTGGA | -0.237 ± 0.065
AGGCTATA | -0.207 ± 0.012
AAGTGTCT | 0.329 ± 0.022
ATTTACAG | -0.0158 ± 0.018
AAAGAGTC | -0.22 ± 0.046
GCACCGCA | 0.0271 ± 0.029
ACAGATTC | 0.111 ± 0.045
TGTCGACA | 0.371 ± 0.0078
AGGTGAAG | 0.219 ± 0.012
GTACATAA | -0.0339 ± 0.035
ACTGCAGC | 0.0672 ± 0.059
ATCGGCAA | 0.115 ± 0.03
ACCGCCAC | 0.197 ± 0.085
AAGGAATT | -0.117 ± 0.052
GCCGCCCC | -0.0497 ± 0.058
CTGCTGCC | -0.113 ± 0.024
GGTAGACA | 0.0476 ± 0.0034
ATCTCTTA | -0.0802 ± 0.075
